# From PubChem BioAssay (Tox21)
# “And” between values parts separate entries of the source, which are not always exact repeats. Equal values may be shown once. Inconclusive means that the source gave no clear call. Such entries were picked first, then a sample of the others. For part of these data: A potency beside an inconclusive call is a rough fit, not a confirmed value. The source made the active and inactive calls. Unless noted, calls follow the shape of the dose curve; as a rule, active = well fitted curve in the direction sought with a large enough effect in the repeat runs; inconclusive = weak or mixed curves; inactive = no such curve, though single readings can be large; an effect the other way counts as inactive or inconclusive.
# Assays:
# [1] = biological target: Nuclear receptor subfamily 1 group I member 3 (Homo sapiens) (UniProt Q14994); assay: qHTS assay to identify small molecule agonists of the constitutive androstane receptor (CAR) signaling pathway (AID 1224839); also: nearly all actives have a fitted effect of over 15% in size; also: potency is read from the fitted curve at half-maximal effect;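 as to activation: HepG2 cells stably carrying human CAR and a CYP2B6 luciferase reporter; % is scaled to controls: 0 for no effect and ±100 for the full control effect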
# UniProt Q14994, sequence (Q14994 whole entry, looked up): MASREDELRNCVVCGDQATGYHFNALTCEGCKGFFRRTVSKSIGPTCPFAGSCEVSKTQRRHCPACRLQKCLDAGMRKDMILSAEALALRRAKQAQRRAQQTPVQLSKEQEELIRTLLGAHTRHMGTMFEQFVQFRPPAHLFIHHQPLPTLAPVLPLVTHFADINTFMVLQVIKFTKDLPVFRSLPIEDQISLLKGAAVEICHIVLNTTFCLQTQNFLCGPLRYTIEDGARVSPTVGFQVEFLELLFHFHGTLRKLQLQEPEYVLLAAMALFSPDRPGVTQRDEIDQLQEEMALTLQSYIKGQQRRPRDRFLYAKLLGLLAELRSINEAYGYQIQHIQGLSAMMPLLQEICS
# How it was run: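 HepG2 cells stably expressing hCAR and a CYP2B6-2.2kb luciferase reporter were treated with compounds at 15 concentrations plus 0.75 uM PK11195 (final) for 24 h at 37 C; luminescence was read after ONE-Glo addition.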
# [2] = qHTS assay to identify small molecule antagonists of the estrogen related receptor signaling pathway with the pleiotropic PPARgamma coactivator (PGC) from Tox21 10K library - cell viability counter screen (AID 1224840; active = well fitted cell-killing curve with a large enough effect in the repeat runs, not every such curve was filed as active; inconclusive = weak or mixed curves, or effect the other way; inactive = no such curve, though single readings can be large or run the other way; also: % is scaled to controls: 0 for no effect and ±100 for the full control effect; nearly all actives have a fitted effect of over 40% in size)
# How it was run: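 Readout: fluorescence intensity from CellTiter-Fluor after 30 min at 37 C/5% CO2. Preceded by 17.5 h treatment of PGC/ERR cells with DMSO-dissolved compounds, added 6 h post-seeding.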
# [3] = biological target: Thyrotropin receptor (Homo sapiens) (UniProt P16473); assay: qHTS assay to identify small molecule agonists of the thyroid stimulating hormone receptor (TSHR) signaling pathway (AID 1224843; calls by dose curve; also: nearly all actives have a fitted effect of over 45% in size; also: potency is read from the fitted curve at half-maximal effect; as to activation: % is scaled to controls: 0 for no effect and ±100 for the full control effect); settings: TSHR-HEK293 cells, cAMP HTRF, agonist mode, 30 min; activation: at 92.4 µM (top of the series) unless noted
# UniProt P16473, sequence (P16473 whole entry, looked up): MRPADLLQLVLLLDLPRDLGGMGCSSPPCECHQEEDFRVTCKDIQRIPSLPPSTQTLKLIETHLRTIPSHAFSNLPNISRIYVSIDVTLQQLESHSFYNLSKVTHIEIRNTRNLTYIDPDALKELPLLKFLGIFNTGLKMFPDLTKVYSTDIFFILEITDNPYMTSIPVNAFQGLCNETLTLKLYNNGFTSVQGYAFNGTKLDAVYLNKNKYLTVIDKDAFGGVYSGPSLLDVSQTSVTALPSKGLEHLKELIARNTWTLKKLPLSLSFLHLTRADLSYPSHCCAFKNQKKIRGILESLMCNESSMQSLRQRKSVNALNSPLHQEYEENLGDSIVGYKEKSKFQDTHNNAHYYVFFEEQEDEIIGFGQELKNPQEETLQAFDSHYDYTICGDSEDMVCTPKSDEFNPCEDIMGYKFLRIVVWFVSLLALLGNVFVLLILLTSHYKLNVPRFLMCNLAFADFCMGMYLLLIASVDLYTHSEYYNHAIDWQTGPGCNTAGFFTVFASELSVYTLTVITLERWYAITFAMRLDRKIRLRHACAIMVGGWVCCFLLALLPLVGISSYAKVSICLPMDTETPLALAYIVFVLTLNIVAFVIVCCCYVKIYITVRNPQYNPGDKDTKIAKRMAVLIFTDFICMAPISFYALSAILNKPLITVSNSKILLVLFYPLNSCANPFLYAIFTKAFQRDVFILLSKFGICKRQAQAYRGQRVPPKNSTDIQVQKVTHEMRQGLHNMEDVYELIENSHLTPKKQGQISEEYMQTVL
# How it was run: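 HEK293/TSHR, 800 cells/well; cpd 30 min RT; add cAMP-d2 + anti-cAMP-cryptate, 1 h RT; fluorescence read on plate reader. 15-pt titration, n=3.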
# [4] = qHTS assay to identify small molecule agonists of the estrogen related receptor signaling pathway with the pleiotropic PPARgamma coactivator (PGC) from Tox21 10K library (AID 1224842); also: potency is read from the fitted curve at half-maximal effect; nearly all actives have a fitted effect of over 15% in size
# How it was run: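 PGC/ERR reporter cell line, 2,000 cells per well, incubated 6 h at 37 C before 23 nL compound in DMSO was added. After 18 h at 37 C, One-Glo luminescence read following 30 min at room temperature.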
# [5] = qHTS RealTime-Glo MT Cell Viability Assay in HepG2 cells - 24 hour (AID 1224867); also: nearly all actives have a fitted effect of over 50% in size; also: potency is read from the fitted curve at half-maximal effect
# How it was run: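 Viability was tracked continuously by NanoLuc luminescence from prosubstrate reduced by living HepG2 cells, at successive time points over 40 h of compound exposure. Cells with reagent were preincubated 5 h at 37 °C before compound addition.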
# [6] = qHTS RealTime-Glo MT Cell Viability Assay in HEK293 cells - 32 hour (AID 1224868); also: potency is read from the fitted curve at half-maximal effect; nearly all actives have a fitted effect of over 50% in size
# How it was run: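 Viability tracked continuously by luminescence as live cells reduce a prosubstrate for NanoLuc; HEK293 cells preincubated 5 h, compound-treated at 37 C, and read at 0, 8, 16, 24, 32 and 40 h.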
# [7] = qHTS assay to identify small molecule agonists of H2AX (AID 1224845; active = well fitted activation curve with a large enough effect in the signal ratio in the repeat runs, not every such curve was filed as active; inconclusive = weak or mixed curves; the % refers to the signal ratio; also: potency is read from the fitted curve at half-maximal effect; as to activation (H2AX phosphorylation): % is scaled to controls: 0 for no effect and ±100 for the full control effect); settings: CHO-K1 phospho-H2AX Ser139 HTRF, 3 h; activation (H2AX phosphorylation): at 154 µM (top of the series) unless noted
# How it was run: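 Wild-type CHO-K1 cells, plated overnight, exposed 3hr at 37C to 15 concentrations (0.76% DMSO final). Lysed, then HTRF anti-pH2AX (S139) cryptate and anti-H2AX-d2 antibodies, 24 hr room temperature; 665/620 nm emission read.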
# [8] = qHTS assay to identify small molecule agonists of the hypoxia (HIF-1) signaling pathway - cell viability counter screen (AID 1224844; calls by dose curve; also: nearly all actives have a fitted effect of over 50% in size; also: potency is read from the fitted curve at half-maximal effect)
# How it was run: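 In this counter screen, HRE-bla ME-180 cell viability after 17 hrs of compound exposure at 37C was read by CellTiter-Glo luminescence, multiplexed with the beta-lactamase reporter measurement.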
# [9] = qHTS assay to identify small molecule agonists of the estrogen related receptor (ERR) signaling pathway from Tox21 library (AID 1224849; calls by dose curve; also: % is scaled to controls: 0 for no effect and ±100 for the full control effect; nearly all actives have a fitted effect of over 15% in size); settings: ERR reporter cell line, ONE-Glo luciferase, 18 h; at 92.4 µM (top of the series)
# How it was run: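 Luciferase activity in ERR pathway reporter cells served as the agonist readout; exposure lasted 18 h at 37 C, with ONE-Glo detection after 30 min at room temperature.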
# [10] = qHTS assay to identify small molecule agonists of the hypoxia (HIF-1) signaling pathway (AID 1224846; active = well fitted activation curve with a large enough effect in the signal ratio in the repeat runs, not every such curve was filed as active; inconclusive = weak or mixed curves; the % refers to the signal ratio; also: potency is read from the fitted curve at half-maximal effect); settings: HRE-bla ME-180 cells, beta-lactamase ratio, 17 h; activation: at 76.8 µM (top of the series) unless noted
# How it was run: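 ME-180 HRE-bla reporter cells; compounds in DMSO, 17 h at 37C; read-out beta-lactamase via CCF4-AM FRET.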
# [11] = qHTS assay to identify small molecule agonists of H2AX - cell viability counter screen (AID 1224847; calls by dose curve; also: potency is read from the fitted curve at half-maximal effect; nearly all actives have a fitted effect of over 30% in size)
# How it was run: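 Wild-type CHO-K1 cells (10% FBS medium) were plated overnight at 37C, exposed to compounds at 15 concentrations for 3 hr at 37C (0.76% DMSO final), and viability was read as CellTiter-Glo luminescence after 30 min at room temperature.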
# Tags tell the direction and shape of the fitted curve or compound fluorescence and quenching.
smiles,measurement,setting,value
Cc1ccccc1C(OCCN(C)C)c1ccccc1 (stereo not drawn),Potency,[1],inactive
same,Potency,[2],inactive
same,Potency,[3],"inconclusive: 24.3 µM [inhibitor, partial curve]"
same,activation,[3],inconclusive: -25%
CCOC(=O)c1ccc(N(C)C)cc1,Potency,[1],active: 30.6 µM
same,activation,[3],inconclusive: -33.1%
CSc1ccc(Oc2ccc(S(N)(=O)=O)cc2CN(C)C)cc1C,Potency,[1],inactive
same,Potency,[4],"inconclusive: 2.73 µM [activator, single point]"
same,activation,[3],inconclusive: 42.7%
same,Potency,[5],"inconclusive: 49 µM [falling, partial curve, poor fit]"
same,Potency,[6],active: 43.6 µM
Cc1cc(OI)c(C(C)C)cc1-c1cc(C(C)C)c(OI)cc1C,Potency,[1],inactive
O=C(c1ccc(O)cc1)c1ccc(O)cc1,Potency,[1],"inconclusive: 43.3 µM [activator, partial curve, poor fit]"
same,Potency,[4],"inconclusive: 9.69 µM [activator, partial curve, poor fit]"
same,Potency,[7],inconclusive: 89.8 µM
C=CC(=O)OCCC(=O)O,Potency,[1],"inconclusive: 70.9 µM [activator, partial curve]"
same,Potency,[4],"inconclusive: 79.5 µM [activator, partial curve, poor fit] and inconclusive: 68.6 µM [activator, single point]"
same,Potency,[8],inactive
same,"activity change, positive = activation",[9],inconclusive: 28.8%
CCN(CCO)c1cccc(C)c1,Potency,[1],"inconclusive: 48.6 µM [activator, partial curve]"
CCOC(=O)NCCC[Si](OCC)(OCC)OCC,Potency,[1],"inconclusive: 61.1 µM [activator, partial curve]"
CCCCNc1ccc(C(=O)OCCN(C)C)cc1,Potency,[1],"inconclusive: 26.6 µM [activator, partial curve]"
same,Potency,[8],"inconclusive: 19 µM [cytotoxic, partial curve]"
CN(C)CCCCl,Potency,[1],inactive
same,Potency,[7],inactive
CC1=C(CC(=O)O)c2cc(F)ccc2/C1=C\c1ccc(S(C)(=O)=O)cc1,Potency,[1],inactive
same,Potency,[10],"inconclusive: 16.9 µM [rising, partial curve]"
COc1c2ccoc2cc2oc(=O)ccc12,Potency,[1],"inconclusive: 35.1 µM [activator, partial curve] and inconclusive: 8.63 µM [activator, partial curve]"
same,Potency,[3],inactive
same,Potency,[7],inactive
O=C(O)c1c(O)c(-c2ccccc2)nc2ccccc12,Potency,[1],"inconclusive: 21.1 µM [activator, partial curve, poor fit]"
same,Potency,[8],"inconclusive: 15.1 µM [cytotoxic, partial curve]"
C/C=C1\[C@H]2C=C(C)C[C@]1(N)c1ccc(=O)[nH]c1C2,Potency,[1],inactive
same,Potency,[7],inactive
Clc1cccc(-c2cc(Cl)cc(Cl)c2)c1,Potency,[1],"inconclusive: 52.5 µM [activator, partial curve]"
same,Potency,[3],"inconclusive: 37.2 µM [inhibitor, partial curve, poor fit]"
same,Potency,[8],active: 53 µM
same,Potency,[7],"inconclusive: 109 µM [activator, single point]"
same,Potency,[10],"inconclusive: 47.3 µM [falling, partial curve]"
same,Potency,[11],"inconclusive: 122 µM [cytotoxic, single point]"
CC(C)(C)C1=CC(=O)C(C(C)(C)C)=CC1=O,Potency,[1],active: 21.1 µM
same,Potency,[3],active: 9.44 µM
same,Potency,[8],"inconclusive: 12 µM [rising, partial curve]"
same,activation (H2AX phosphorylation),[7],inconclusive: 8.24% [at 70.9 µM]
same,Potency,[6],"inconclusive: 26.8 µM [cytotoxic, single point]"
O=C(O)CCCC(=O)O,Potency,[1],"inconclusive: 30 µM [activator, partial curve]"
same,Potency,[3],inactive
same,Potency,[8],inactive
Clc1cccc(C(c2ccc3nc[nH]c3c2)n2ccnc2)c1 (stereo not drawn),Potency,[1],"inconclusive: 26.6 µM [activator, partial curve, poor fit]"
same,Potency,[7],"inconclusive: 61.9 µM [rising, single point]"
same,Potency,[6],"inconclusive: 4.77 µM [cytotoxic, single point]"
C=C(C)C(=O)OCCOCC,Potency,[1],"inconclusive: 54.7 µM [activator, partial curve]"
same,activation,[3],inconclusive: 7.44%
same,Potency,[8],inactive
same,Potency,[7],"inconclusive: 101 µM [activator, single point]"
same,Potency,[5],inactive
CCCCNc1ccc(C(=O)OCCN(CC)CC)cc1,Potency,[1],"inconclusive: 21.1 µM [activator, partial curve]"
same,activation (H2AX phosphorylation),[7],inconclusive: -8% [at 70.9 µM]
same,Potency,[6],"inconclusive: 26.8 µM [cytotoxic, partial curve, poor fit]"
CNC(=O)Nc1ccc(Cl)c(Cl)c1,Potency,[1],"inconclusive: 54.5 µM [activator, partial curve]"
same,Potency,[8],inactive
COC(Cc1ccccc1)OC,Potency,[1],inactive
same,Potency,[7],inactive
